According to the supplement of paper PMC4166925:
± gives the standard deviation of the averaged measurements. Whole data set: some 33,000 sequences, median “E-score (dimensionless, -0.5 to 0.5)” near -0.046, cut for the highest 2% near 0.36. Some of the results follow.

test system: T1, SpTbr T-box DNA-binding domain (GST fusion); experiment: PBM E-score of 8-mer (E-score (dimensionless, -0.5 to 0.5)); Tbr is Tbrain of the sea star Patiria miniata (Pm) or the sea urchin Strongylocentrotus purpuratus (Sp); higher = stronger binding preference; most listed sequences are background and not binding sites; settings: the construct has about 5 more residues each side
T1 sequence: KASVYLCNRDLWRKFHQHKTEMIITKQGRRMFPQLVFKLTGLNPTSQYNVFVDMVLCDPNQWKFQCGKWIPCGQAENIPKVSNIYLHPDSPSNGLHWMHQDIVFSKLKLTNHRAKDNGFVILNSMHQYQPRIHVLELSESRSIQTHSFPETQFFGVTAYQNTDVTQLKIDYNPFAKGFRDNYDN
Procedure, shortened: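 GST-fused Tbr T-box DNA-binding domains (the whole T-box plus about five flanking residues) were expressed in BL21 E. coli at 20 °C and purified by glutathione affinity chromatography. Universal Agilent oligonucleotide arrays were made double-stranded by primer extension, incubated with 200 nM protein in PBS (pH 7.5), then scanned and quantified. Every ungapped 8-mer was scored from probe intensities. The Universal PBM Analysis Suite gave each word an enrichment E-score, averaged over duplicate arrays.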

Sequence	PBM E-score of 8-mer
AGTCCTAC	-0.00302 ± 0.063
CGAGCTAC	-0.0388 ± 0.1
TACGGTCA	-0.0405 ± 0.015
AGGTTGCG	0.267 ± 0.044
ACCGTTGC	-0.0131 ± 0.028
CTAATAGC	0.0334 ± 0.069
AAATAGGC	-0.127 ± 0.036
ATGTCAAG	-0.0933 ± 0.071
AGTATGGG	-0.144 ± 0.045
TAAATGGA	-0.18 ± 0.046
GAAGACCC	-0.12 ± 0.057
CCCAAATA	-0.169 ± 0.068
GAGGCGCA	0.0748 ± 0.024
AAGTGCGC	0.194 ± 0.018
GTATAAAC	-0.0298 ± 0.051
GGAGCCTA	-0.123 ± 0.051
CATAAGAA	-0.0902 ± 0.077
GCGAACCA	0.248 ± 0.022
CCACGCAG	-0.152 ± 0.074
ATGAAAGG	-0.0822 ± 0.15
AATTATAA	-0.131 ± 0.032
TACCTTGA	0.01 ± 0.065

Sequence	PBM E-score of 8-mer
ATACCGAT	-0.211 ± 0.071
TAAGAAGA	-0.175 ± 0.13
AAAGATGC	-0.0528 ± 0.083
ACCATACT	-0.187 ± 0.0022
CGACTCCC	-0.0168 ± 0.035
GGACACCC	0.185 ± 0.023
GCAAGCGC	-0.00549 ± 0.071
AAATGAGT	-0.0358 ± 0.043
ACGAAAGT	0.00641 ± 0.0039
AACCAATC	-0.211 ± 0.064
AAGCGAGC	0.194 ± 0.075
TGGACCCA	-0.149 ± 0.01
ATACATAG	-0.238 ± 0.11
CATGACAG	-0.0894 ± 0.019
AACTTCAA	-0.0508 ± 0.031
ATAAAACC	-0.0786 ± 0.065
CTACGCGA	0.0131 ± 0.01
ATAAGAGA	-0.127 ± 0.047
GTGAAATA	0.176 ± 0.084
GAACCTGA	0.00609 ± 0.054
CAGCTTAA	-0.0965 ± 0.041
GGACAACA	0.0909 ± 0.012

Sequence	PBM E-score of 8-mer
ACCTTCGA	0.0873 ± 0.056
ACACGACT	0.113 ± 0.018
CATCGCAA	-0.03 ± 0.019
TCACGGGA	0.0827 ± 0.011
AGATACAT	-0.206 ± 0.024
TGACAAAA	0.247 ± 0.048
TGCGCCCA	-0.0931 ± 0.057
GGAAAGTA	-0.153 ± 0.044
AACTGTGA	0.376 ± 0.011
CCCGTCAG	0.0659 ± 0.052
ACCCCTCA	0.0972 ± 0.11
CTACCCCA	-0.208 ± 0.06
CTGATCTA	-0.281 ± 0.038
AGCAGCGG	-0.144 ± 0.034
ACCGCTCT	-0.1 ± 0.033
GAGACCGC	0.00459 ± 0.034
CGCTTGTC	0.115 ± 0.043
GTGCTGTA	-0.117 ± 0.039
CATGAATC	0.0324 ± 0.072
AATCGTAA	0.0216 ± 0.031
CCAGCATC	-0.0542 ± 0.036
GATAAAAC	-0.0623 ± 0.043

Sequence	PBM E-score of 8-mer
TACCCGGA	-0.128 ± 0.15
CCGAGTCA	-0.101 ± 0.027
CCAATGGC	0.0452 ± 0.029
AGTCAGCC	-0.105 ± 0.056
AGGAGTGG	0.0757 ± 0.084
CACTAGGC	0.0671 ± 0.05
CACCAAAA	0.0206 ± 0.046
ACTACGGA	-0.16818 ± 0.00016
AACACTGC	0.303 ± 0.029
ATTCAAGC	-0.0934 ± 0.054
TCTGGTCA	-0.0843 ± 0.0043
CAATCATA	-0.128 ± 0.0074
TAAGGGCA	-0.102 ± 0.011
ACCAGGGC	-0.127 ± 0.06
ATCGGTAG	-0.174 ± 0.018
ATAAAGAA	-0.16 ± 0.03
AATACCAT	-0.0517 ± 0.012
GGAAGACA	0.0343 ± 0.043
TAGTCATA	-0.0729 ± 0.045
AAAAGGTA	-0.207 ± 0.011
